Laboratory results as given in the supplement of paper PMC4723716.
Over roughly 3,600 compounds, “viability index relative to DMSO control” has its median near 0.81; the lowest 2% begin near 0.13. The list shows a part of the results.

tested on: Plasmodium falciparum NF54 stage V gametocytes; test: viability index relative to DMSO control (fraction); higher = less gametocyte killing; conditions: 1.25 µM, incubation time: 72 h
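Further: 384-well serum-free SaLSSA: MitoTracker Red CMXRos staining with saponin lysis, high-content imaging, treated-well particle count divided by plate-mean count of DMSO wells.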

Row | Structure (SMILES) | viability index
1 | Cc1ccc(-c2cc(N3CCCC3CO)n3nccc3n2)cc1 (centres undefined) | 0.685
2 | CCOC(=O)c1c(NC(=O)CSc2nc3c(c(=O)n(C)c(=O)n3C)n2C(C)C)sc2c1CCCC2 | 0.735
3 | COc1ccc(-n2c(CNc3cc(C(F)(F)F)ccc3Cl)nnc2SCc2ccccc2Cl)cc1 | 0.696
4 | CC(CN1CCC(n2cc(C(=O)N3CCCC3)nn2)CC1)c1ccccc1 (centres undefined) | 0.976
5 | COCCN1C(=O)C(O)=C(C(=O)c2ccccc2)C1c1ccccc1[N+](=O)[O-] (centres undefined) | 0.792
6 | Cc1ccccc1CSc1ccc(-c2cccs2)nn1 | 0.827
7 | COc1cc(-c2nc3ccc(N4CCN(C)CC4)cc3[nH]2)cc(OC)c1OC | 0.939
8 | O=c1nc(C=Cc2ccc(Cl)cc2)oc2ccccc12 | 0.735
9 | CC(=C(Cl)Cl)C(Br)=C(Br)CO | 0.892
10 | COc1cc(OC)c(N(C)C(=O)c2cc3c(s2)-c2ccccc2S(=O)(=O)C3)cc1Cl | 0.286
11 | C=CCc1cccc(C=NNc2nc3ccccc3[nH]2)c1O | 0.885
12 | CCC1CCCCN1CCCNC(=O)c1cn(CC)c(=O)c2cc(OC)c(OC)cc12 (centres undefined) | 0.871
13 | COC(=O)c1cn([C@@H]2C[C@@H](C(=O)NCc3cccc(C(F)(F)F)c3)N(C3CCN(Cc4ccccc4)CC3)C2)nn1 | 0.692
14 | COc1ccc(C2CC(=O)C3=C(C2)NC(C)=C(C(=O)OC(C)C)C3c2cccc(Br)c2)cc1OC (centres undefined) | 0.958
15 | Cc1cccn2c(NCc3ccccc3)c(-c3ccccc3OC(=O)C(C)Cl)nc12 (centres undefined) | 0.643
16 | Cc1oc(-c2cccs2)nc1CN1CCC(CO)(CCOc2ccccc2)CC1 | 1.06
17 | O=C(Oc1ccc(-c2ccc(OC(=O)c3ccco3)cc2)cc1)c1ccco1 | 0.907
18 | CCOc1ccc2nc(C)cc(Nc3ccc(N(C)C)cc3)c2c1 | 0.896
19 | CC1CC(C)CN(C(=O)c2sc3ccccc3c2Cl)C1 (centres undefined) | 0.769
20 | O=C(Nc1ccc2nc3n(c(=O)c2c1)CCCCC3)C(=O)N1CCN(c2ccccc2)CC1 | 0.423
21 | COc1cc2ncnc(NC3CCN(Cc4ccccc4)CC3)c2cc1OC | 0.734
22 | Clc1ccc(OCc2nc3ccccc3n2CCc2ccccc2)cc1 | 0.707
23 | C[n+]1oc(C=Cc2ccccc2)cc1C=Cc1ccccc1 | 0.43

Row | Structure (SMILES) | viability index
24 | CCOC(=O)C1=C(C)NC2=C(C(=O)CC(c3ccccc3)C2)C1c1ccccc1Cl (centres undefined) | 1.14
25 | CCOC(=O)c1c(Cl)nnc(-c2ccccc2)c1-c1ccccc1 | 0
26 | CC(=O)c1ccc(N2CCN(Cc3cc(-c4ccnc5cc(Cl)ccc45)ccc3O)CC2)cc1 | 0.433
27 | CC(C)CCNCC(O)Cn1c2ccccc2c2ccccc21 (centres undefined) | 0.683
28 | COc1ccc2cc(C(C)=NO)ccc2c1 | 1.38
29 | Cc1ccc(C2CC3=Nc4ccccc4N(C(=O)C(F)(F)F)C(c4ccc(OCc5ccccc5)cc4)C3=C(O)C2)cc1 (centres undefined) | 0.859
30 | CCCCn1c(=N)n(CC(O)c2ccc(Br)cc2)c2ccccc21 (centres undefined) | 0.634
31 | CCOc1ccc2cc(C#N)c(SCC(=O)N3CC(=O)Nc4ccccc43)nc2c1 | 0.746
32 | O=S(=O)(c1ccc(Br)s1)N1CCN(c2ccccc2)CC1 | 0.805
33 | CCCCc1c(C)nc2ccc(Br)cc2c1O | 0.692
34 | Nc1ccc(-c2cc(N)n(-c3ccc(Oc4ccccc4)c(S(=O)(=O)O)c3)n2)cc1 | 0.829
35 | CC(C)(C)NCC(O)Cn1c2ccc(Cl)cc2c2cc(Cl)ccc21 (centres undefined) | 0.398
36 | CCCCCOc1ccc(/C=C2/N=C(c3ccccc3)OC2=O)cc1 | 0.837
37 | O=C1CC(c2ccc([N+](=O)[O-])cc2)C2=C(CC(c3ccc(F)cc3)CC2=O)N1 (centres undefined) | 0.51
38 | CN(C)c1ccc(NC(=O)C2C3C=CC(O3)C2C(=O)O)cc1 (centres undefined) | 0.812
39 | CC1CCN(c2ncnc3sc4c(c23)CCC(C)C4)CC1 (centres undefined) | 0.892
40 | CN(C=Cc1sc2ccc3ccccc3c2[n+]1C)c1ccccc1 | 0.527
41 | COc1ccc(-n2nc(C(=O)NCc3ccccc3OC)c3ccccc3c2=O)cc1 | 0.664
42 | Cc1ccc(C=NNc2ncnc3[nH]cnc23)cc1 | 0.529
43 | CCOC(=O)c1c[nH]c2c(CC)cccc2c1=O | 0.783
44 | COc1cccc(C(=O)NC(c2ccccc2OC)c2cc(Cl)c3cccnc3c2O)c1 (centres undefined) | 0.963
45 | O=C(Nc1ccccc1)C(=Cc1ccncc1)NC(=O)c1ccccc1 | 0.75
46 | CC[n+]1c(C=CN(C)c2ccccc2)sc2ccc(OC)cc21 | 0.645

Row | Structure (SMILES) | viability index
47 | CC(C)N(CCNc1ncnc2c1[nH]c1ccc(Cl)cc12)C(C)C | 1.08
48 | CCCC(CCC)C(=O)Nc1ccc2c(c1)N(C(=O)CCCl)c1ccccc1CC2 | 0.717
49 | CC(=O)N(C1=C(N2CCOCC2)C(=O)c2ccccc2C1=O)c1cccc(Cl)c1 | 0.0385
50 | N#Cc1c2c(c(N3CCN(C4CCCCC4)CC3)n3c1nc1ccccc13)CCC2 | 1.03
51 | Cc1nc(NCCCN(C)C)c2sc3nc4c(cc3c2n1)COC(C)(C)C4 | 0.963
52 | COc1ccc2nc(Nc3nc(-c4ccccn4)cs3)sc2c1 | 0.331
53 | O=c1c2ccccc2[nH]c2ccc(I)cc12 | 0.904
54 | CC1(C)CC(=O)C2=C(C1)Nc1ccccc1N(C(=O)Cc1ccccc1)C2c1ccc([N+](=O)[O-])s1 (centres undefined) | 1.03
55 | COc1cnc(-c2ccccn2)nc1NC(C)C | 0.0307
56 | CCOC(=O)c1c(C)n(-c2ccccc2)c2ccc(OC(=O)c3ccco3)cc12 | 0.725
57 | Cc1ccc(C(C(=O)NC2CCCCC2)N(C(=O)Cn2nnc3ccccc32)c2ccc(S(=O)(=O)NCC3CCCO3)cc2)o1 (centres undefined) | 1.13
58 | CCN(CC)CCCC(C)Nc1ccnc2cc3ccccc3cc12 (centres undefined) | 0.971
59 | CCOC(=O)C1=C(CC)NC2=C(C(=O)CC(C)(C)C2)C1c1ccc(Cl)cc1Cl (centres undefined) | 0.764
60 | O=C(Nc1ccc2oc(-c3ccc(I)cc3)nc2c1)c1ccc([N+](=O)[O-])o1 | 0.0302
61 | CN(CCCNc1ccc(C(=O)Nc2ccc(C(F)(F)F)cc2)cc1[N+](=O)[O-])Cc1ccccc1 | 1.01
62 | CCCOC(=O)C1=C(C)NC2=C(C(=O)CC(c3ccc(OC)cc3)C2)C1c1ccc([N+](=O)[O-])cc1 (centres undefined) | 0.736
63 | CCOc1ccc(-n2nc(C(=O)NCCCN(C)Cc3ccccc3)c3ccccc3c2=O)cc1 | 0.871
64 | COc1ccc(Cl)cc1NC(=O)CSC1=C(C#N)C(c2ccccc2)C(C(=O)Nc2ccccc2)=C(C)N1 (centres undefined) | 0.798
65 | CC(=O)N(C1=C(N2CCOCC2)C(=O)c2ccccc2C1=O)c1ccc(Br)cc1 | 0.408
66 | CCN(CC)CCCC(C)Nc1cc(C=Cc2ccc([N+](=O)[O-])cc2)nc2ccc(OC)cc12 (centres undefined) | 0.728
67 | CCOC(=O)c1ccc2nc3c(nc2c1)C(=O)c1ccccc1C3=O | 0.359
68 | COc1ccc(-c2cc(-c3ccccc3)nc(SCC(=O)N3c4ccccc4Sc4ccc(Cl)cc43)c2C#N)cc1 | 1.11
69 | CC(C)CCNC(=O)C1CSC(c2ccc(F)cc2)N1C(=O)c1ccc(Cl)cc1Cl (centres undefined) | 0.744

Row | Structure (SMILES) | viability index
70 | CCc1c(C#N)c(N)nc(SCC(=O)c2ccc(C)cc2C)c1C#N | 0.53
71 | COc1ccc(C2NCCc3c2[nH]c2ccccc32)cc1CSc1nc2ccccc2[nH]1 (centres undefined) | 1.05
72 | COC(=O)c1[nH]c2ccc(Cl)cc2c1NC(=O)C(C)N1CCN(C2CCCCC2)CC1 (centres undefined) | 0.991
73 | Cc1ccccc1Cn1cc(NC(=O)c2cc(-c3cccs3)on2)cn1 | 0.968
74 | CN1CCN(C(c2ccco2)c2sc3ncnn3c2O)CC1 (centres undefined) | 0.711
75 | COc1ccc(C2=C(c3ccc(OC)cc3)C3(c4ccccc4)C(=O)C2(c2ccccc2)C2C(=O)N(c4ccc(OC)cc4[N+](=O)[O-])C(=O)C23)cc1 (centres undefined) | 0.781
76 | O=C(NCCc1ccc(Cl)cc1)C1CCCN(c2nnc(N3CCCC3=O)s2)C1 (centres undefined) | 1.16
77 | CC(C)(C)CC(C)(C)c1ccc(O)c(CN2CCN(CCC#N)CC2)c1 | 0.735
78 | CCOc1c(Br)cc(C2C(C(=O)OC)=CN(C)C=C2C(=O)OC)cc1OC | 0.697
79 | O=C1C(Nc2ccc(F)cc2)=C(N2CCCCC2)C(=O)c2ccccc21 | 0.675
80 | COc1ccc(C2CC(=O)C3=C(C2)NC(C)=C(C(=O)OC2CCCC2)C3c2ccccc2C)cc1OC (centres undefined) | 0.71
81 | O=C(CSc1nc(-c2ccccc2Cl)ns1)Nc1ccc2c(c1)OCCO2 | 0.479
82 | CCOc1cc(C2CC(=O)NC3=C2C(=O)CC(c2cc(OC)ccc2OC)C3)ccc1O (centres undefined) | 1.04
83 | Cc1ccc(-c2c3c(nc4sc(C(=O)Nc5cccc(C)c5)c(N)c24)CCC3)cc1 | 0.838
84 | O=C(Nc1cc(Cl)cc(Cl)c1)C1C2C=CC3(O2)C1C(=O)N(CCC1=CCCCC1)C3C(=O)NC1CCCCC1 (centres undefined) | 1.12
85 | C[n+]1ccc(C=Cc2ccc(O)cc2)cc1 | 0.784
86 | O=C(NCc1ccc(Cl)cc1)C(=O)NCc1ccccn1 | 0.702
87 | CCn1c(=NC(=O)c2cc(=O)c3ccccc3o2)sc2c(OC)ccc(OC)c21 | 0.917
88 | O=C(/C=C/Nc1ccccc1NS(=O)(=O)c1ccc([N+](=O)[O-])cc1)c1ccccc1 | 0.878
89 | C=CCSc1nc(Sc2ccc(Cl)cc2)c2sc3ccccc3c2n1 | 0.767
